Data taken from the supplement of paper PMC10126150.
Values marked as one replicate rest on one cluster of the flow cell; about a third of the high ones do not repeat.

Test system: ATP
Assay: switch fluorescence ratio, 500 uM ATP over buffer (Cy3 cluster intensity, sum of 5 cycles each) (fold (ratio)); higher = stronger signal-on switching upon ATP binding; sequences stand for … in TCGTCGGCAGCGTCAGATGTGTATAAGAGACAGTTTTTTTTTTTTTTTTTTTTTTTTT…TC
Conditions: aptamer strand: ATP DNA aptamer (quencher-CACCTGGGGGAGTATTGCGGAGGAAGG + anchor), 100 nM annealed; ATP concentration: 500 uM; one replicate
Procedure, shortened: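 Cy3-labelled switching-strand clusters on a modified Illumina MiSeq flow-cell were annealed to 100 nM quencher-labelled ATP aptamer and imaged first in selection buffer, then after 15 min with 500 uM ATP at 22 °C. NaOH stripping and re-annealing separated each of five buffer/ATP cycles, and clusters outside 100-1000 RFU were excluded. The fluorescence ratio sums target-cycle Cy3 intensity over buffer-cycle Cy3 intensity per cluster and averages it per switch-domain sequence.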
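Note: ATP exposure 15 min at 22 °C before imaging.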

| Sequence | switch fluorescence ratio |
| --- | --- |
| GAGGCCTAGC | 0.963 |
| TTTACTGCTA | 1.2 |
| ACCTTCGGCT | 1.16 |
| AGTTATAGTA | 0.999 |
| ACATTTCCG | 1.06 |
| CAACCCGTTT | 0.998 |
| GCCCTGACAC | 1.06 |
| TGATGCTATT | 0.986 |
| AATTAGCGG | 0.995 |
| CTGCGAATAT | 1.3 |
| ACACATTATT | 0.985 |
| TTATAGACCG | 0.985 |
| GAACATTAAT | 0.967 |
| TAGTAGAGCG | 1.03 |
| CATTGTGCTC | 0.964 |
| CTATCGGTAC | 1.84 |
| GGGCGAGAAG | 0.969 |
| TTAAACGCGA | 1.31 |
| CTCGTTATTT | 1.02 |
| AGTGATGCTA | 0.999 |
| CCTGACCTTC | 1.35 |
| CATCCTGATC | 1.21 |
| TTAAGTGTGC | 1.06 |

| Sequence | switch fluorescence ratio |
| --- | --- |
| GTTCCTATTA | 0.997 |
| GGTCTAAAT | 0.986 |
| GTGAAGTTTA | 1.02 |
| TTAAATCAC | 1.05 |
| TTATTCTGGG | 0.964 |
| TGCTCGATTG | 0.999 |
| ACGGAGGGAC | 1.05 |
| AAACGGGAGA | 0.983 |
| GTCTCAAGCA | 1.04 |
| CGGTGGTCCT | 1.03 |
| TTTAGATATG | 0.985 |
| GGATTCCTGT | 0.992 |
| GAGGTTCGGA | 1.01 |
| TCGGTGTTGT | 1.02 |
| ATGGCTAGCA | 1.02 |
| TTAGGGTATA | 1.03 |
| TTACAGCCCG | 1.06 |
| ACCTTACATC | 1.28 |
| GGACCTACCG | 1.1 |
| GATCTACCGC | 1.18 |
| AGCAGTATGC | 1.05 |
| ATACAAAATA | 1.03 |
| GGAGCCCCTT | 1.09 |

| Sequence | switch fluorescence ratio |
| --- | --- |
| TAGGAGGCAT | 1.02 |
| TAAAGGCTAA | 1.07 |
| CGCGTCAAAG | 1 |
| CTGACTCCCT | 2.52 |
| TCCATGCGAA | 1.06 |
| TGCCTATGCG | 0.991 |
| CATCAGGCGC | 1.09 |
| CGTGACCAA | 0.991 |
| GTGAAGAAAT | 1.02 |
| TCAGGGTCGG | 1.01 |
| TACTC | 1 |
| TCCTCCTTAG | 1.89 |
| CAAAGTGGGA | 0.957 |
| CTCACGTTGG | 1.01 |
| TCGACCAGGG | 1.15 |
| ATGAATGTAG | 1 |
| TCCATTCCTT | 1.03 |
| TCGCATACGG | 2.61 |
| TTTCTCCTCC | 1.56 |
| TCGGATACAT | 1 |
| ACACCTCTAA | 1.08 |
| CGTGGCTTTC | 1 |
| GGCATTTGTT | 0.93 |

| Sequence | switch fluorescence ratio |
| --- | --- |
| ACATGAGAGC | 1 |
| CTTCACTTGT | 1.01 |
| TTCGTTCAAC | 1.03 |
| TTGTGGGTT | 0.979 |
| TATTAATAAT | 1.01 |
| CTAGCATCCT | 1.04 |
| TGGTGGGTAA | 1 |
| ATCCAGGAGA | 1 |
| GCCAGTACGC | 1.03 |
| GTTACTTTGC | 1 |
| TGTGTTAACT | 0.968 |
| GCCGTTTTAT | 0.98 |
| CCAGCGGTTT | 0.991 |
| AAGAGGGG | 0.999 |
| GCCCTTTGGT | 0.967 |
| CCATGTCACC | 1.08 |
| GGAGTACGGA | 1.04 |
| GCATAGCAAG | 0.958 |
| ACACGACATA | 1.26 |
| TAGATGATTC | 1.02 |
| ATGGGTTCGG | 1.01 |
| GTGTTCCTAT | 1.02 |
| ATGGCGGTCG | 1.05 |

| Sequence | switch fluorescence ratio |
| --- | --- |
| GATCCCTATG | 0.992 |
| GTTCGCTCCG | 1.04 |
| GGATTGTGGA | 0.98 |
| GATGAAAACT | 1.01 |
| ATCCCAATAT | 3.01 |
| TTCCGCGACC | 3.26 |
| CTATCCGAGA | 1.08 |
| TCTGATTTAT | 0.965 |
| CGCGCTCCCT | 3.74 |
| AACCGTTTCC | 2.49 |
| GCATCGTGGA | 0.999 |
| TAGTACCGTG | 1.02 |
| ATAGTCCGGC | 1.08 |
| GCGACAGACT | 1.05 |
| TGGCCTGAGG | 0.988 |
| GTTAATTTCT | 1.03 |
| TCAGCATCAA | 1.13 |
| AAGCGGCAT | 1.08 |
| GTGGGTGTTT | 1.01 |
| TCTCCTTTAT | 1.29 |
| TATGCACTCG | 1.06 |
| TTCGGGAATC | 1.07 |
| TAATTTGGGC | 0.957 |

| Sequence | switch fluorescence ratio |
| --- | --- |
| CCTTGATTGG | 1 |
| ACATTGTCTG | 0.928 |
| TTAATTAGAG | 0.982 |
| AAGATTATTC | 1 |
| GCTCTCCTAA | 1.07 |
| GCTCCAGGCT | 1.06 |
| TCCATCCA | 0.995 |
| ATATTCCCGT | 1.05 |
| CTAGAAGGA | 1.05 |
| CCGAGGAGTT | 1.04 |
| AGCACGTCGG | 1.01 |
| CGATTCGTAG | 1.03 |
| ACGAAGATAT | 1.04 |
| TTGTGGGCAT | 0.964 |
| TGTTCTGCGT | 1.05 |
| ATCATCGCCC | 1.06 |
| CGTCAATGAT | 1 |
| GTAAGGCATA | 1.02 |
| ATTGGACTCC | 1.02 |
| TAATGATTTG | 1.01 |
| GGATGTGCTA | 0.982 |
| GGCGAACGGG | 1.07 |
| GTGGCCCCTT | 0.988 |

| Sequence | switch fluorescence ratio |
| --- | --- |
| CGCTCGGGTA | 0.983 |
| ACTTTCCGTC | 1.16 |
| CTCAGGCTGG | 1.02 |
| GAGAGACACC | 0.953 |
| TTAAGGTA | 0.973 |
| ATTCTTGCTC | 1.03 |
| ACCAGACAGG | 1.04 |
| TTCAATTATT | 0.986 |
| GGGGCCTTCC | 3.2 |
| TCCGGAACCG | 1.05 |
| GGATGTTGGC | 1.03 |
| AGGTCTAACT | 1 |
| GCTAAAAGGT | 0.965 |
| AGGCTTGGAC | 0.987 |
| TAAGAGGTAG | 0.983 |
| AGTAAAATTC | 1.03 |
| CATCATTGTC | 1.11 |
| AATTCGCTCC | 1.15 |
| TATTCGTTGC | 1.02 |
